One experiment concerns HSkMC. The experiment is described as follows: cytotoxicity call (relative viability < 0.9). The following applies: 10 µM.
Another experiment has as its system HepG2. As to the kind of experiment: cytotoxicity call (relative viability < 0.9). Conditions: 10 µM.
For the next experiment, the system named is S. aureus RN4220. As to the kind of experiment: growth inhibition call (relative growth <= 0.2). Conditions: 50 µM.

Some of the results follow.

For `NC(CO)(CO)CO`, the cytotoxicity call in the experiment with HSkMC and in the experiment with HepG2 was “inactive” each time. Further, in the experiment with S. aureus RN4220, the growth inhibition call is “inactive”.
`C[C@H](CO)N1C[C@H](C)[C@@H](CN(C)S(=O)(=O)c2cn(C)cn2)Oc2c(NS(=O)(=O)c3cccs3)cccc2C1=O`: the cytotoxicity call in the experiment with HSkMC is “inactive”. Besides, the cytotoxicity call in the experiment with HepG2 is “active”. In the experiment on S. aureus RN4220, the growth inhibition call was “inactive”.
Turning to `CCOC(=O)n1ncc(C#N)c1N`, the cytotoxicity call in the experiment on HSkMC and with HepG2 was “inactive” throughout. In addition, in the experiment on S. aureus RN4220, the growth inhibition call is “inactive”.
As to `C[C@@H]1CN([C@@H](C)CO)C(=O)c2cccc(NC(=O)C3CC3)c2O[C@@H]1CN(C)Cc1ccc(C(=O)O)cc1`, the cytotoxicity call with HSkMC and in the experiment with HepG2 was “inactive” each time. For the same molecule, the growth inhibition call in the experiment on S. aureus RN4220 is “inactive”.
In the case of `Cn1c(=O)cnn(CCCCN2CCN(c3ncccn3)CC2)c1=O`, the cytotoxicity call in the experiment with HSkMC and with HepG2 was “inactive” each time. In the experiment on S. aureus RN4220, the growth inhibition call was “inactive”.
Turning to `COCC#Cc1ccc2c(c1)O[C@@H](CN(C)S(C)(=O)=O)[C@@H](C)CN([C@@H](C)CO)S2(=O)=O`, the cytotoxicity call with HSkMC and in the experiment on HepG2 was “inactive” throughout. Also, in the experiment on S. aureus RN4220, the growth inhibition call was “inactive”.
On to `C[C@@H]1CN([C@@H](C)CO)C(=O)Cc2cc(N(C)C)ccc2O[C@@H]1CN(C)C(=O)Nc1ccc2c(c1)OCO2`, for which the cytotoxicity call in the experiment on HSkMC and in the experiment on HepG2 was “inactive” throughout. In addition, the growth inhibition call in the experiment with S. aureus RN4220 was “inactive”.
Take `CNC[C@H]1OCCCC[C@H](C)Oc2ccc(NC(=O)Nc3cccc4ccccc34)cc2C(=O)N([C@H](C)CO)C[C@@H]1C`: the cytotoxicity call in the experiment on HSkMC and with HepG2 was “inactive” in each case. The growth inhibition call in the experiment on S. aureus RN4220 was “inactive”.
Take `CC(C)NC(=O)Nc1ccc2c(c1)CC(=O)N([C@H](C)CO)C[C@@H](C)[C@@H](CN(C)S(=O)(=O)c1cn(C)cn1)O2`: the cytotoxicity call with HSkMC and in the experiment with HepG2 was “inactive” in each case. The growth inhibition call with S. aureus RN4220 was “inactive”.
For `C[C@@H]1CN([C@@H](C)CO)C(=O)c2cc(NC(=O)CCC(F)(F)F)ccc2O[C@@H](C)CCCCO[C@@H]1CN(C)Cc1ccncc1`, the cytotoxicity call in the experiment on HSkMC and in the experiment on HepG2 was “inactive” throughout. Also, the growth inhibition call in the experiment on S. aureus RN4220 was “inactive”.
Consider `COc1cc([C@H]2OC[C@@H]3[C@H]2CO[C@H]3c2cc(OC)c(O[C@@H]3O[C@H](CO)[C@@H](O)[C@H](O)[C@H]3O)c(OC)c2)cc(OC)c1OC`, for which the cytotoxicity call in the experiment with HSkMC and in the experiment on HepG2 was “inactive” throughout. The growth inhibition call in the experiment with S. aureus RN4220 was “inactive”.
As to `C[C@@H]1CCCCO[C@H](CN(C)Cc2ccc3c(c2)OCO3)[C@H](C)CN([C@H](C)CO)C(=O)c2cc(NS(=O)(=O)c3cccs3)ccc2O1`, the cytotoxicity call in the experiment with HSkMC and with HepG2 was “inactive” throughout. In addition, the growth inhibition call in the experiment on S. aureus RN4220 was “inactive”.
Regarding `NS(=O)(=O)c1ccc(C(=O)O)cc1`, the cytotoxicity call in the experiment with HSkMC and with HepG2 was “inactive” throughout. Besides, the growth inhibition call in the experiment on S. aureus RN4220 was “inactive”.
In the case of `COC(=O)c1c(C)c2c(c(C)c1O)OC(=O)c1c(C)c(Cl)c(O)c(Cl)c1O2`, the cytotoxicity call with HSkMC and in the experiment on HepG2 was “inactive” each time. Further, the growth inhibition call with S. aureus RN4220 is “active”.
`C[C@H]1CN([C@@H](C)CO)C(=O)Cc2cc(NC(=O)Nc3cccc4ccccc34)ccc2O[C@@H]1CN(C)C(=O)Nc1ccc(C(F)(F)F)cc1`: the cytotoxicity call in the experiment with HSkMC and in the experiment on HepG2 was “inactive” throughout. Besides, in the experiment on S. aureus RN4220, the growth inhibition call was “inactive”.
With `C[C@H](CO)N1C[C@H](C)[C@H](CN(C)S(C)(=O)=O)Oc2ccc(NC(=O)Cc3cn(C)c4ccccc34)cc2CC1=O`, the cytotoxicity call with HSkMC and in the experiment with HepG2 was “inactive” in each case. The growth inhibition call in the experiment on S. aureus RN4220 is “inactive”.
Regarding `O=c1c(O)c(-c2ccccc2)oc2cc(O)cc(O)c12`, the cytotoxicity call with HSkMC and in the experiment with HepG2 was “inactive” throughout. Besides, the growth inhibition call in the experiment with S. aureus RN4220 is “inactive”.
As to `COc1ccc(NC(=O)Nc2ccc3c(c2)CC(=O)N([C@@H](C)CO)C[C@H](C)[C@@H](CN(C)Cc2ccc(C(F)(F)F)cc2)O3)cc1`, the cytotoxicity call in the experiment with HSkMC and in the experiment on HepG2 was “inactive” each time. The growth inhibition call in the experiment on S. aureus RN4220 is “inactive”.
Turning to `CC(C)NC(=O)Nc1cccc2c1O[C@H](CN(C)S(=O)(=O)c1ccccc1)[C@H](C)CN([C@@H](C)CO)C2=O`, the cytotoxicity call in the experiment on HSkMC and in the experiment on HepG2 was “inactive” throughout. Besides, in the experiment on S. aureus RN4220, the growth inhibition call is “inactive”.
As for `CC(C)NC(=O)N(C)C[C@H]1OCCCC[C@H](C)Oc2ccc(NS(C)(=O)=O)cc2C(=O)N([C@@H](C)CO)C[C@H]1C`, the cytotoxicity call in the experiment on HSkMC and with HepG2 was “inactive” throughout. In the experiment on S. aureus RN4220, the growth inhibition call was “inactive”.
For `C[C@@H]1CCCCO[C@H](CN(C)Cc2ccncc2)[C@@H](C)CN([C@H](C)CO)C(=O)c2cc(NC(=O)C3CCCCC3)ccc2O1`, the cytotoxicity call in the experiment with HSkMC and with HepG2 was “inactive” throughout. Further, in the experiment with S. aureus RN4220, the growth inhibition call is “inactive”.
In the case of `Cc1ccc(S(=O)(=O)Nc2ccc3c(c2)CC(=O)N([C@H](C)CO)C[C@@H](C)[C@H](CN(C)C(=O)NC(C)C)O3)cc1`, the cytotoxicity call with HSkMC and in the experiment on HepG2 was “inactive” each time. Moreover, the growth inhibition call in the experiment on S. aureus RN4220 is “inactive”.
On to `C[C@H](CO)N1C[C@H](C)[C@@H](CN(C)Cc2ccc(Oc3ccccc3)cc2)Oc2c(NC(=O)CCCCCC(=O)Nc3ccccc3N)cccc2C1=O`, for which the cytotoxicity call in the experiment on HSkMC and in the experiment on HepG2 was “inactive” in each case. Moreover, the growth inhibition call in the experiment with S. aureus RN4220 is “inactive”.
Consider `CC(C)NC(=O)N[C@@H]1CC[C@H](CCN)O[C@@H]1CO`, for which the cytotoxicity call with HSkMC and in the experiment with HepG2 was “inactive” throughout. Also, the growth inhibition call in the experiment on S. aureus RN4220 is “inactive”.
Consider `C[C@@H]1CN([C@@H](C)CO)C(=O)Cc2cc(NC(=O)NC3CCCCC3)ccc2O[C@H]1CN(C)S(=O)(=O)c1cn(C)cn1`, for which the cytotoxicity call in the experiment on HSkMC and with HepG2 was “inactive” each time. For the same molecule, the growth inhibition call in the experiment with S. aureus RN4220 was “inactive”.
Consider `NCCCC[C@H](NC(=O)[C@@H](NC(=O)[C@H](Cc1c[nH]c2ccccc12)NC(=O)[C@H](CCCCN)NC(=O)[C@H](CCCCN)NC(=O)[C@H](Cc1c[nH]c2ccccc12)NC(=O)[C@H](Cc1c[nH]c2ccccc12)NC(=O)[C@H](CCCCN)NC(=O)[C@@H](N)CCCCN)C(c1ccccc1)c1ccccc1)C(N)=O`, for which the cytotoxicity call in the experiment with HSkMC and in the experiment with HepG2 was “inactive” in each case. Further, the growth inhibition call with S. aureus RN4220 was “inactive”.
As to `COc1ccc(S(=O)(=O)Nc2ccc3c(c2)C(=O)N([C@H](C)CO)C[C@H](C)[C@@H](CN(C)Cc2ccc(C(F)(F)F)cc2)OCCCC[C@H](C)O3)cc1`, the cytotoxicity call in the experiment on HSkMC (human skeletal muscle cells) and in the experiment on HepG2 was “inactive” each time. Further, the growth inhibition call with S. aureus RN4220 was “inactive”.

The values above are taken from the antibiotic and cytotoxicity screens of Wong et al. (2023).
